Experimental data published in ChEMBL document CHEMBL4513137, “CO-ADD screening of University of Manchester (UK) compounds”.
The other results are listed elsewhere or left out. Potency and affinity values are given separately.

Test system: Acinetobacter baumannii
Conditions: Concentration 32 ug.mL-1; ASSAY_TEST Inhibition of Bacterial Growth; detection method Absorption (OD600); MEDIA CAMHB; plate type 384well; NBS; CORNING #3640; time 18 hr

Structure (SMILES) | Inhibition
COc1cccc(N(C)c2cccc(OC)c2-c2ccc([N+](=O)[O-])cc2C)c1 | -6.26%
O=[N+]([O-])c1ccc(-c2cccc3c2[nH]c2ccccc23)cc1 | -15.36%
c1ccc(Nc2ccccc2-c2ncccn2)cc1 | -5.33%
Clc1cc(Br)cc(Cl)c1-c1ccccc1Nc1ccccc1 | -16.59%
CC[C@@H](Nc1ccccc1-c1c(Cl)cc(Br)cc1Cl)c1ccccc1 | -6.43%
Cc1ccccc1Nc1ccccc1-c1ccc([N+](=O)[O-])cc1 | -14.6%
Cc1cccc(C)c1Nc1ccccc1-c1ccccc1[N+](=O)[O-] | -17.42%
O=[N+]([O-])c1ccc(-c2c(Nc3ccccc3)ccc3ccccc23)cc1 | -17.68%
O=[N+]([O-])c1ccc(-c2ccccc2Nc2ccccc2)cc1F | -12.31%
COc1cc([N+](=O)[O-])ccc1-c1ccccc1Nc1ccccc1 | -16.17%
O=[N+]([O-])c1ccc(-c2ccccc2Nc2ccccc2Br)cc1 | -12.36%
Cc1cc(C)c(Nc2ccccc2-c2ccc([N+](=O)[O-])cc2)c(C)c1 | -1.52%
O=[N+]([O-])c1ccc(-c2ccccc2Nc2ccccc2)cc1C(F)(F)F | -6.23%
O=[N+]([O-])c1cc(Cl)c(-c2ccccc2Nc2ccccc2)c(Cl)c1 | -19.92%
CC(=O)c1ccc(-c2ccccc2Nc2ccccc2)cc1 | -10.5%
COc1cccc(Nc2ccccc2)c1-c1ccc([N+](=O)[O-])cc1 | -8.08%
O=[N+]([O-])c1ccc2c3ccccc3n(-c3ccccc3)c2c1 | -19.11%
O=[N+]([O-])c1ccc(-c2ccccc2N(Cc2ccccc2)c2ccccc2)cc1 | -12.85%
O=[N+]([O-])c1ccc(-c2ccccc2Nc2ccccc2)c(Cl)c1 | -16.95%
COc1cc([N+](=O)[O-])ccc1-c1c(Nc2ccccc2)cccc1OC | -7.71%
O=[N+]([O-])c1ccc(-c2c(Nc3ccccc3)cccc2-c2ccccc2)cc1 | -9.65%
O=[N+]([O-])c1ccc(-c2ccccc2Nc2ccccc2)cc1 | 1.78%
N#Cc1ccc(-c2ccccc2Nc2ccccc2)cc1 | -20.05%
Cc1cc([N+](=O)[O-])ccc1-c1ccccc1N(C)c1ccccc1 | -0.95%
COc1cccc(Nc2ccccc2)c1-c1c(Cl)cc(Br)cc1Cl | -17.38%
COc1ccc(Nc2ccccc2-c2ccc([N+](=O)[O-])cc2)cc1 | -10.99%
CN(c1ccccc1)c1ccccc1-c1ccc([N+](=O)[O-])cc1 | -8.77%
